PMC10668032
The other results are listed elsewhere or left out. At the low end of the ranking the order means little.

molecular target: SIX1 homeodomain (reference allele) (UniProt Q15475); test: universal protein binding microarray; conditions: Universal all-10-mer PBM (8x60K, AMADID 030236), 300 nM GST-tagged protein, Alexa Fluor 488 anti-GST; buffer, salt, pH and temperature not stated; high values mean tight binding; most listed sequences are background and not binding sites; double strand, one strand shown

Question: How did the binding signal turn out when ATGGGAGA was run?
Answer: -0.0506 E-score

Question: For CTGTAGGC, which binding signal is on record?
Answer: -0.21 E-score

Question: For ATGCCCCA, which binding signal is on record?
Answer: 0.114 E-score

Question: How did the binding signal turn out when AGCGTCTG was run?
Answer: 0.0452 E-score

Question: For ATGGCCCG, which binding signal is on record?
Answer: -0.123 E-score

Question: With CCCTTGAA as the sequence, how does the binding signal read?
Answer: 0.0113 E-score

Question: For ATTGATGA, which binding signal is on record?
Answer: -0.0497 E-score

Question: For AAGAACTT, which binding signal is on record?
Answer: -0.26 E-score

Question: Which binding signal does the source give for CTGGCGGC here?
Answer: -0.218 E-score

Question: For CTGATGGC, which binding signal is on record?
Answer: -0.185 E-score

Question: With CTTAAGTC as the sequence, how does the binding signal read?
Answer: -0.228 E-score

Question: With GAGCAGCA as the sequence, how does the binding signal read?
Answer: -0.3 E-score

Question: How did the binding signal turn out when CGTTCACA was run?
Answer: -0.224 E-score

Question: How did the binding signal turn out when GGGAACAA was run?
Answer: -0.137 E-score

Question: CGATCTGA was tested. Which binding signal did it give?
Answer: 0.302 E-score

Question: For ACAAAAGA, which binding signal is on record?
Answer: -0.0402 E-score

Question: With AATTGGGA as the sequence, how does the binding signal read?
Answer: -0.0847 E-score

Question: How did the binding signal turn out when ATCGGCCG was run?
Answer: 0.128 E-score

Question: Which binding signal does the source give for GTCACAGA here?
Answer: -0.00367 E-score

Question: How did the binding signal turn out when AGTTTTAT was run?
Answer: -0.142 E-score

Question: For TAAGTCGA, which binding signal is on record?
Answer: 0.106 E-score

Question: With CCTCGACC as the sequence, how does the binding signal read?
Answer: -0.03 E-score

Question: Which binding signal does the source give for CTACACAC here?
Answer: -0.0921 E-score

Question: How did the binding signal turn out when GCTTTACC was run?
Answer: -0.148 E-score

Question: How did the binding signal turn out when AGCCATGC was run?
Answer: 0.0186 E-score

Question: How did the binding signal turn out when TGCCAGCA was run?
Answer: -0.273 E-score

Question: With AGCAGAAG as the sequence, how does the binding signal read?
Answer: -0.195 E-score

Question: With GACACACC as the sequence, how does the binding signal read?
Answer: 0.165 E-score

Question: For ACAGAGTG, which binding signal is on record?
Answer: -0.119 E-score

Question: For CGGCCGTA, which binding signal is on record?
Answer: -0.0155 E-score

Question: With CGGGGAAC as the sequence, how does the binding signal read?
Answer: 0.0229 E-score

Question: For CGGGCTTC, which binding signal is on record?
Answer: 0.0267 E-score

Question: For GACGCCTC, which binding signal is on record?
Answer: -0.0993 E-score

Question: ATAAATTA was tested. Which binding signal did it give?
Answer: -0.0707 E-score

Question: For GGGCCCGA, which binding signal is on record?
Answer: -0.0416 E-score

Question: ATTCCCGA was tested. Which binding signal did it give?
Answer: 0.0123 E-score

Question: AGCTTAGC was tested. Which binding signal did it give?
Answer: -0.233 E-score

Question: How did the binding signal turn out when AGCATCAA was run?
Answer: -0.027 E-score

Question: Which binding signal does the source give for TACTCGCA here?
Answer: 0.154 E-score

Question: For TATAAGAA, which binding signal is on record?
Answer: 0.0186 E-score

Question: With AGCATCAG as the sequence, how does the binding signal read?
Answer: 0.0106 E-score

Question: How did the binding signal turn out when ACTATCAT was run?
Answer: 0.3 E-score

Question: For CCAGATAA, which binding signal is on record?
Answer: 0.234 E-score

Question: For AAACACGA, which binding signal is on record?
Answer: -0.162 E-score

Question: Which binding signal does the source give for GGTCTTAC here?
Answer: -0.0205 E-score

Question: How did the binding signal turn out when TCAAAGAA was run?
Answer: -0.26 E-score

Question: With CATCATGG as the sequence, how does the binding signal read?
Answer: 0.0742 E-score

Question: For CAGCTCGC, which binding signal is on record?
Answer: 0.0263 E-score

Question: With TAGTTCCA as the sequence, how does the binding signal read?
Answer: -0.0642 E-score

Question: How did the binding signal turn out when ATTTCCTA was run?
Answer: -0.0321 E-score

Question: How did the binding signal turn out when GCCAAGCA was run?
Answer: -0.29 E-score

Question: Which binding signal does the source give for AAATGCGC here?
Answer: -0.274 E-score

Question: Which binding signal does the source give for AATCCCGA here?
Answer: 0.223 E-score

Question: How did the binding signal turn out when AGCACGAG was run?
Answer: 0.09 E-score

Question: For ATCATCAC, which binding signal is on record?
Answer: 0.228 E-score

Question: With GCGTTTAC as the sequence, how does the binding signal read?
Answer: -0.073 E-score

Question: With AAAGCATA as the sequence, how does the binding signal read?
Answer: -0.18 E-score

Question: Which binding signal does the source give for AAAGAGGT here?
Answer: -0.146 E-score

Question: With GGCCTGAA as the sequence, how does the binding signal read?
Answer: -0.241 E-score

Question: For CCGGCGCG, which binding signal is on record?
Answer: 0.0861 E-score

Question: With ACTACCCG as the sequence, how does the binding signal read?
Answer: 0.159 E-score

Question: For CTGGAACC, which binding signal is on record?
Answer: -0.0881 E-score

Question: AAGCATAG was tested. Which binding signal did it give?
Answer: -0.205 E-score

Question: ACGCATAC was tested. Which binding signal did it give?
Answer: 0.1 E-score

Question: How did the binding signal turn out when ATGGTTAC was run?
Answer: -0.13 E-score

Question: How did the binding signal turn out when AACTATAA was run?
Answer: -0.206 E-score

Question: How did the binding signal turn out when GTGCGTCA was run?
Answer: -0.179 E-score

Question: How did the binding signal turn out when CGGCAGAA was run?
Answer: -0.0996 E-score

Question: For AGTACCGA, which binding signal is on record?
Answer: -0.0772 E-score

Question: Which binding signal does the source give for AAGTTCCA here?
Answer: -0.137 E-score

Question: AATCAAAC was tested. Which binding signal did it give?
Answer: -0.167 E-score

Question: Which binding signal does the source give for GACCATGC here?
Answer: -0.0171 E-score

Question: With AAGCGTAA as the sequence, how does the binding signal read?
Answer: -0.231 E-score

Question: For TGCTGACA, which binding signal is on record?
Answer: -0.0304 E-score

Question: For AAATAATA, which binding signal is on record?
Answer: 0.192 E-score

Question: With CCGTGCCG as the sequence, how does the binding signal read?
Answer: -0.168 E-score

Question: How did the binding signal turn out when CCCGCCGC was run?
Answer: 0.019 E-score

Question: For CTAAGATC, which binding signal is on record?
Answer: 0.207 E-score

Question: With GAATCCTC as the sequence, how does the binding signal read?
Answer: -0.0341 E-score

Question: CCTTTAGC was tested. Which binding signal did it give?
Answer: -0.222 E-score

Question: Which binding signal does the source give for GCTTGCAC here?
Answer: -0.246 E-score

Question: How did the binding signal turn out when AACAGAAA was run?
Answer: -0.254 E-score

Question: How did the binding signal turn out when ACATGCCG was run?
Answer: 0.0693 E-score

Question: With AGCCGTAA as the sequence, how does the binding signal read?
Answer: -0.0925 E-score

Question: How did the binding signal turn out when ACTTGGCA was run?
Answer: -0.12 E-score

Question: Which binding signal does the source give for AATCTGCT here?
Answer: -0.0349 E-score

Question: How did the binding signal turn out when CCCCTGTA was run?
Answer: 0.144 E-score

Question: How did the binding signal turn out when GTTACTTA was run?
Answer: -0.0663 E-score

Question: Which binding signal does the source give for GCACTGAC here?
Answer: -0.0298 E-score

Question: How did the binding signal turn out when AGTCGTTC was run?
Answer: -0.336 E-score

Question: For AAGGCGGT, which binding signal is on record?
Answer: -0.0222 E-score

Question: For CGCAGACC, which binding signal is on record?
Answer: -0.158 E-score

Question: For CCTTGAGC, which binding signal is on record?
Answer: -0.058 E-score

Question: With AGGTGAGC as the sequence, how does the binding signal read?
Answer: 0.0625 E-score

Question: For AAGGAATC, which binding signal is on record?
Answer: -0.00012 E-score

Question: How did the binding signal turn out when ATTCTCGC was run?
Answer: -0.0601 E-score

Question: How did the binding signal turn out when CGAGAGTC was run?
Answer: -0.141 E-score

Question: For ATAAATGG, which binding signal is on record?
Answer: -0.0817 E-score

Question: ACGTACAT was tested. Which binding signal did it give?
Answer: -0.118 E-score

Question: Which binding signal does the source give for AAGTCACG here?
Answer: -0.127 E-score

Question: With ACAACGAA as the sequence, how does the binding signal read?
Answer: 0.0151 E-score

Question: With CGTTGGGC as the sequence, how does the binding signal read?
Answer: -0.134 E-score

Question: With AAAGATCC as the sequence, how does the binding signal read?
Answer: 0.277 E-score

Question: For CTTATCGA, which binding signal is on record?
Answer: 0.00559 E-score

Question: For CCTCAACA, which binding signal is on record?
Answer: 0.0814 E-score

Question: CTCTGTAC was tested. Which binding signal did it give?
Answer: -0.00309 E-score

Question: How did the binding signal turn out when GCTCTACA was run?
Answer: -0.00505 E-score

Question: TTCACAAA was tested. Which binding signal did it give?
Answer: -0.174 E-score

Question: For GATCTGCA, which binding signal is on record?
Answer: 0.258 E-score

Question: For AAAGCCAT, which binding signal is on record?
Answer: -0.146 E-score
